# Experimental data published in PubChem BioAssay AID686970 (National Center for Advancing Translational Sciences (NCATS), 2013).
# Hit rate of the full screen: of about 360,000 compounds, about 6,000 (1.7%) were called active. The inconclusive results got no clear call from the source; some entries with a clear call stand among them for comparison. Calls come from the whole dose curve; as a rule, active = well fitted cell-killing curve with a large enough effect; inconclusive = small, poorly fitted or top-dose-only effect, or effect the other way; inactive = flat fitted curve, though single readings scatter. No potency is given beside an inconclusive call; the fits are too rough.
# Experiment: qHTS for induction of synthetic lethality in tumor cells producing 2HG: qHTS for the HT-1080-NT fibrosarcoma cell line;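 note: NT is the 2HG producing partner of a matched IDH1 knockdown line; nearly all actives have a fitted effect of over 55% in size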;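 for activity, negative = less viability: 0% = DMSO-treated cells and -100% = media-only wells without cells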
# Settings: HT-1080-NT fibrosarcoma viability, CellTiter-Glo ATP luminescence, 48 h; activity, negative = less viability: at 46.1 µM (top of the series) unless noted
# Summary of the method: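 HT-1080-NT; 750 cells/well; 5% FBS RPMI; 48 h compound, 37 degrees C; CellTiter-Glo luminescence; curve fitting and curve-class assignment.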
# Potency is the fitted concentration of half-maximal effect; tags give direction and shape of the fitted curve.
SMILES,Potency,"activity, negative = less viability"
COc1cccc(C(=O)Nc2ccc(C(=O)c3ccncc3)cc2)c1,"inconclusive [cytotoxic, partial curve]",–
O=C(CSc1n[nH]c(-c2ccccn2)n1)Nc1ccccc1,"inconclusive [cytotoxic, single point]",–
CC(C(=O)N(C)Cc1cccc(F)c1)N1CCN(S(=O)(=O)c2ccc3c(c2)OCCCO3)CC1 (stereo not given),–,inactive: 1.27%
COc1cc(C(=O)OCCCN2CCCN(CCCOC(=O)c3cc(OC)c(OC)c(OC)c3)CC2)cc(OC)c1OC,"inconclusive [cytotoxic, partial curve]",–
Cn1c(NCCCO)nc2c(c1=O)C1(CCCCC1)Cc1ccccc1-2,"inconclusive [cytotoxic, single point]",–
C[C@@H]1CN([C@H](C)CO)S(=O)(=O)c2ccc(-c3ccc(C#N)cc3)cc2O[C@H]1CN(C)C(=O)Nc1cc(F)ccc1F,"inconclusive [cytotoxic, single point]",–
O=C(c1ccc(Cl)c(S(=O)(=O)N2CCOCC2)c1)N1CCN(c2ccccc2F)CC1,–,inactive: 1.7%
CC1CCCCN1CC(O)COCCC12CC3CC(CC(C3)C1)C2 (stereo not given),"inconclusive [cytotoxic, single point]",–
CC(=O)Nc1ccc(S(=O)(=O)N2CCC(NC(=O)c3ccccc3)CC2)cc1,"inconclusive [cytotoxic, single point]",–
C/C=C/c1ccc(OCCCCN2CC(C)CC(C)C2)c(OC)c1 (stereo not given),active: 23.1 µM,–
OC(c1cc(Cl)cc(Cl)c1)c1ncc(-c2cccc(F)c2)[nH]1 (stereo not given),"inconclusive [cytotoxic, single point]",–
O=C(Nc1ccc([N+](=O)[O-])cc1)Nc1nc(-c2ccc(Cl)s2)cs1,active: 6.51 µM,–
COc1ccc(S(=O)(=O)N2CCOCC2)cc1NC(=O)[C@@H]1CCCN1C(=O)c1cccs1,–,inactive: 3.5%
Nn1c(Cc2cccc3ccccc23)nnc1SCc1ccc(Cl)c(Cl)c1,"inconclusive [cytotoxic, single point]",–
O=C(c1cc2sccc2n1Cc1ccccc1)N1CCN(c2nc3ccccc3s2)CC1,–,inactive: -5.48%
CCN(CC(=O)Nc1cccc(OC)c1)CC(=O)Nc1cccc2ccccc12,–,inconclusive: 4.87%
CCOC(=O)C1=CCN(S(=O)(=O)c2ccccc2Br)C1c1ccccc1 (stereo not given),"inconclusive [cytotoxic, partial curve, poor fit]",–
COc1ccc(C(=O)Nc2ccc(Cl)c(S(=O)(=O)N3CCOCC3)c2)cc1,active: 3.66 µM,–
COc1ccc(CCNC(=O)Cn2c(=O)cnc3ccccc32)cc1,"inconclusive [cytotoxic, single point]",–
COc1cc(NC(=O)NCCN2CCN(c3ccc(Cl)cc3)CC2)ccc1C,"inconclusive [cytotoxic, partial curve]",–
O=C(NCCCNC(=O)c1cnccn1)c1ccc(Cl)cc1,–,inactive: 8.44%
Nc1nc2ccccc2cc1C(=O)NCc1ccc(-c2ccccc2)cc1,"inconclusive [cytotoxic, partial curve]",–
CC(C(=O)Nc1sc2c(c1C(=O)NCC1CCCO1)CCC2)N1C(=O)c2ccccc2C1=O (stereo not given),–,inactive: 5.73%
CC(=O)c1cccc(-c2ccnc3c2CC(C(=O)Nc2ccc(Cl)cc2)O3)c1 (stereo not given),"inconclusive [cytotoxic, single point]",–

SMILES,Potency,"activity, negative = less viability"
COc1ccc(/C(C)=N/Nc2nc3ccccc3nc2C)cc1,"inconclusive [cytotoxic, single point]",–
CC(Oc1ccc(Cl)cc1Cl)C(=O)Nc1ccncc1 (stereo not given),"inconclusive [cytotoxic, partial curve]",–
CC(=O)N1N=C2c3ccccc3CCC2C1c1ccc(F)cc1 (stereo not given),"inconclusive [cytotoxic, single point]",–
CCOc1ccc(S(=O)(=O)N(C(=O)c2ccco2)c2cc3sc(=O)oc3c3ccccc23)cc1,"inconclusive [cytotoxic, partial curve]",–
COc1ccc(NC(=O)Nc2nc(C(N)CC(C)C)cs2)cc1 (stereo not given),"inconclusive [cytotoxic, single point]",–
COc1ccc(NC(=O)CCC(=O)c2ccc(F)cc2)cc1,"inconclusive [cytotoxic, single point]",–
COc1ccccc1CNC(=O)C(=O)NCC(c1ccco1)N1CCOCC1 (stereo not given),–,inactive: 2.36%
CCCOc1ccc(C2=NNC(=O)CC2)cc1,–,inactive: 3.35%
CN(C)c1ccc(NC2=C([N+](=O)[O-])CS(=O)(=O)C2)cc1,"inconclusive [cytotoxic, single point]",–
CCC(C)Sc1nc2c(cnn2-c2ccc(C)c(C)c2)c(=O)[nH]1 (stereo not given),–,inactive: 2.97%
COc1cc2c(cc1OC)C(C)N(CCc1ccc(Cl)cc1)CC2 (stereo not given),active: 11.6 µM,–
CCOc1ccc(NC(=O)Cn2nnc(C(=O)NCc3cccs3)c2N)cc1,"inconclusive [cytotoxic, single point]",–
COc1cc2c(C#N)c(N3CCCCC3)nc(N)c2c(N)n1,"inconclusive [cytotoxic, partial curve]",–
CN(CC(=O)N1CCN(Cc2ccccc2)CC1)S(=O)(=O)c1cccc2nsnc12,–,inactive: -0.885%
O=C(CSc1nnc(Cn2c(=O)sc3ccccc32)n1CCc1ccccc1)N1CCOCC1,–,inactive: 21.6%
CC[N+](C)(CC)CCOC(=O)C(O)(c1ccccc1)C1CCCCC1 (stereo not given),"inconclusive [rising, partial curve, poor fit]",–
CC(=O)Nc1cc(-c2ccc(C(=O)N3CCOCC3)cc2)cn2c(-c3ccc(C(C)=O)cc3)cnc12,–,inactive: -9.78%
CN(C)C(CNc1ncnc2sccc12)c1cccs1 (stereo not given),–,inactive: -3.35%
O=C(N/N=C/c1ccc(OC(F)F)cc1)c1ccc(CSc2nc3ccccc3[nH]2)cc1,–,inactive: -18.6%
OC[C@@H]1CN(CCN2CCOCC2)C[C@H](n2cnc3c(N4CCOCC4)ncnc32)O1,–,inactive: 10%
O=C(c1cc(-c2ccc(Cl)cc2)on1)N1CCc2ccccc2C1,–,inconclusive: 31.5%
O=C(CN1CCN(C(=O)c2cccc(-n3cnnn3)c2)CC1)Nc1ccccc1Cl,–,inactive: 9.28%
CC1=C(C(=O)N2CCOCC2)CC(CC(=O)NC(c2ccccc2)c2ccccc2)C(=O)N1Cc1ccc(C(C)(C)C)cc1 (stereo not given),–,inactive: -25.2%
COc1ccc(OCC(O)Cn2c(Br)nc3c2c(=O)[nH]c(=O)n3C)cc1 (stereo not given),"inconclusive [cytotoxic, single point]",–

SMILES,Potency,"activity, negative = less viability"
CC1=C(C(=O)OCc2ccc3c(c2)OCO3)C(c2ccccc2)NC(=O)N1 (stereo not given),"inconclusive [cytotoxic, partial curve]",–
C=CCNC(=S)NNC(=O)c1ccc(OCC(C)C)cc1,"inconclusive [cytotoxic, single point]",–
COc1ccc(NS(=O)(=O)c2ccc(NC(=S)NC(=O)CC(C)C)cc2)cc1,"inconclusive [cytotoxic, partial curve]",–
Cc1[nH]c2ccccc2c1/C=N/Nc1ccc([N+](=O)[O-])cc1,active: 9.2 µM,–
c1ccc(COc2ncnc3c2ncn3CCCNCC(c2ccccc2)c2ccccc2)cc1,active: 16.4 µM,–
O=c1[nH]c(=S)[nH]c2c1C(c1ccc(Cl)c(Cl)c1)OC(CCc1ccccc1)C2 (stereo not given),"inconclusive [cytotoxic, partial curve]",–
COc1ccc(/C=C2\CN(Cc3ccccc3)C/C(=C\c3ccc(OC)cc3OC)C2=O)c(OC)c1,"inconclusive [cytotoxic, single point]",–
Cc1ccc(-n2[nH]c(C)c(C=Nc3ccc(S(=O)(=O)Nc4nccs4)cc3)c2=O)cc1C,"inconclusive [cytotoxic, partial curve]",–
Cc1cc(C)c2[nH]c(=O)c(C(c3nnnn3CC3CCCO3)N3CCCC(C)C3)cc2c1 (stereo not given),–,inactive: 1.12%
COc1ccccc1CNC(=O)C1CCN(S(=O)(=O)c2ccc3c(c2)C(C)(C)C(=O)N3C)CC1,–,inconclusive: 2.96%
CC(C)(C)NC(=O)CN1CCN(C(=O)CCl)CC1,"inconclusive [cytotoxic, single point]",–
C[C@@H]1CN([C@@H](C)CO)C(=O)c2cc(NC(=O)C3CCCCC3)ccc2O[C@@H](C)CCCCO[C@@H]1CN(C)C(=O)CCCN(C)C,–,inactive: 5.15%
O=c1c[n+]([O-])c2ccccc2n1OCc1c(F)cccc1F,"inconclusive [cytotoxic, single point]",–
CCNCCC(=O)N1c2ccccc2Sc2ccc(NC(=O)OCC)cc21,"inconclusive [cytotoxic, single point]",–
Cc1c(C(=O)NCCO)sc2nc3n(c(=O)c12)CCC3,–,inactive: -4.92%
OC(c1cccc(Cl)c1)c1nc(-c2cnc3ccccc3c2)cs1 (stereo not given),"inconclusive [cytotoxic, single point]",–
CCc1cc2c(=O)c(-c3nc4ccccc4n3C)c(C)oc2c(CN2CCN(CCO)CC2)c1O,"inconclusive [cytotoxic, full curve]",–
COC1=C(Nc2ccc(OC)cc2)C(=O)C(OC)=C(Nc2ccc(OC)cc2)C1=O,–,inactive: 6.18%
CCCCCC1CCC(C(=O)NNC(=S)NCC)CC1 (stereo not given),active: 6.31 µM,–
c1ccc(CNc2ncnc3sccc23)cc1,"inconclusive [cytotoxic, single point]",–
CC(=O)Nc1ccc(NC(=O)COC(=O)/C(=C/c2ccccc2)n2nnnc2C)cc1,"inconclusive [cytotoxic, single point]",–
Cc1ccc(OCC(=O)Nc2ccc(Cl)cc2)c(-n2nc3ccccc3n2)c1,"inconclusive [rising, partial curve, poor fit]",–
